Results as given in PubChem BioAssay AID624296 (National Center for Advancing Translational Sciences (NCATS), 2012).
Hit rate of the full screen: of about 350,000 compounds, about 9,900 (2.8%) were called active. Inconclusive means that the source gave no clear call. Such entries were picked first, then a sample of the others. Calls come from the whole dose curve; as a rule, active = well fitted activation curve with a large enough effect; inconclusive = small, poorly fitted or top-dose-only effect; inactive = no such curve, though single readings can be large or run the other way. No potency is given beside an inconclusive call; the fits are too rough.

experiment: A quantitative high throughput screen for small molecules that induce DNA re-replication in MCF 10a normal breast cells.; note: nearly all actives have a fitted effect of over 50% in size; for activity, positive = re-replication: % of control where 0% means no effect; settings: MCF 10A DNA re-replication, Hoechst nuclear intensity, 48 h; activity, positive = re-replication: at 46.1 µM (top of the series)
Potency is the fitted concentration of half-maximal effect; tags give direction and shape of the fitted curve.

SMILES | activity, positive = re-replication | Potency
CCC(C)[C@H]1CNCCN1CCc1cccc2ccccc12 (stereo not given in full) | inactive: 57.7% | 
O=C(COC(=O)c1c(F)cccc1Cl)NCC1CCCCC1 | inactive: -0.673% | 
CN(C(=O)c1ccc(S(=O)(=O)NC2CCCC2)cc1)C1CCCCC1 |  | inconclusive [activator, single point]
COCCCNC(c1ccccc1)c1ccncc1 (stereo not given) |  | inconclusive [activator, partial curve, poor fit]
O=C(c1ccco1)c1cc2c(ccc3ccccc32)oc1=O |  | inconclusive [activator, single point]
COc1ccc(OCC(=O)NNC(=O)c2nn(C)c(=O)c3ccccc23)cc1 | inactive: 12.3% | 
C[C@@H]1CN(c2nc3nonc3nc2N2CCSCC2)C[C@H](C)O1 | inconclusive: 22.4% [activator] | 
O=C(Nc1ccc(Cl)c(-c2nc3ccccc3[nH]2)c1)c1ccc2c(c1)OCO2 |  | inconclusive [activator, single point]
CN(C)c1cc2c(c(N(C)C)c1)C(=O)c1ccccc1C2=O |  | inconclusive [activator, partial curve, poor fit]
O=C1CS(=O)(=O)N(Cc2cccc(F)c2)c2ccc(Br)cc21 |  | inconclusive [activator, single point]
O=C(O)c1cn(C2CC2)c2cc(N3CCNCC3)c(F)cc2c1=O | inactive: 0.483% [at 20.6 µM] | 
O=C(CNC(=O)OCc1ccccc1)NC(Cc1cnc[nH]1)C(=O)O (stereo not given) | inactive: -4.14% | 
CC1CCc2c(sc(/N=C/N(C)C)c2C#N)C1 (stereo not given) | inactive: -34.7% | 
CCOC(=O)c1ccccc1NC(=O)COC(=O)C(CC(C)C)NC(N)=O (stereo not given) |  | active: 0.92 µM
C=CCn1c2ccccc2c(=O)c2cc(C#CC3(O)CCCCC3)ccc21 |  | inconclusive [activator, partial curve, poor fit]
O=S(=O)(NCc1cccnc1)c1ccc(Cl)nc1 |  | inconclusive [activator, full curve, poor fit]
Cc1cc2cc(C#N)c(SCC(=O)Nc3nonc3C)nc2cc1C |  | active: 14.6 µM
Cc1cc(SCC(=O)NCC2CCCO2)nc2ccccc12 (stereo not given) | inactive: 8.6% | 
Cc1cc(S(=O)(=O)N2CCCOC2CNC(=O)C(=O)NCCc2ccco2)ccc1F (stereo not given) | inactive: -14.7% | 
O=C(CSc1nc2cc(Cl)ccc2c(=O)n1Cc1ccco1)Nc1ccc(S(=O)(=O)N2CCOCC2)cc1 |  | inactive
CC(C)c1ccc(C(=O)CN2C(=O)NC3(CCc4ccccc43)C2=O)cc1 (stereo not given) |  | inconclusive [activator, single point]
COc1ccccc1NC(=S)N(Cc1ccco1)Cc1cc2ccc(C)c(C)c2[nH]c1=O |  | inconclusive [activator, full curve, poor fit]
O=C(CC12CC3CC(CC(C3)C1)C2)N1CCCOC1 | inactive: -0.626% | 

SMILES | activity, positive = re-replication | Potency
CCOC(=O)C(NC(=O)c1cccc(Cl)c1)(Nc1sc2c(c1C(N)=O)CCC2)C(F)(F)F (stereo not given) |  | inconclusive [activator, single point]
CN(CC(=O)Nc1ccc(Cl)cc1)C(=O)c1sccc1-c1ccccc1 |  | inconclusive [activator, partial curve, poor fit]
Cc1[nH]n(-c2ccccc2)c(=S)c1C=Nc1ccc([N+](=O)[O-])cc1 |  | inconclusive [activator, single point]
O=C(Nc1cccc(-c2cccc(F)c2)c1)C1CCN(C2CCOCC2)CC1 | inactive: 13% | 
Cn1cc(C(=O)C(=O)N2CCOCC2)c2ccccc21 |  | inconclusive [activator, single point]
COc1ccc(CSCC(=O)N/N=C/c2ccccc2O)cc1 |  | inconclusive [activator, partial curve, poor fit]
COc1cc2c(cc1OC)-c1cc(Nc3ccc(N(C)C)cc3)nc(=O)n1CC2 |  | inconclusive [activator, single point]
CC(=O)Nc1ccc(OC(F)(F)C(F)F)c(NC(C)=O)c1 |  | inconclusive [activator, single point]
COc1ccc(C(=O)/C=C/C(=O)N(CC(=O)NC2CCCCC2)Cc2ccccc2)c(O)c1 |  | inconclusive [activator, partial curve, poor fit]
COc1cc(/C=N/NC(=S)Nc2cccc(S(=O)(=O)N(C)C)c2)ccc1O | inactive: 28.3% | 
C/C(=N\NC(=O)Cc1ccc(Cl)c(Cl)c1)c1cccnc1 | inactive: 5.31% | 
O=C(NCC1CC1)[C@]1(C(F)(F)F)C[C@H](CCC2CCCCC2)CCCO1 | inactive: 39.5% | 
O=S(=O)(Cc1ccccc1)N=Nc1c(O)[nH]c2ccc(Br)cc12 |  | inconclusive [activator, single point]
O=C(Nc1ccc(CN2CCOCC2)cc1)c1ccc(-c2ccc(Br)cc2)o1 |  | inconclusive [activator, single point]
Cc1ccc(S(=O)(=O)Oc2ccc(/C=N/NC(=O)c3nn(C)cc3[N+](=O)[O-])cc2)cc1 |  | inconclusive [activator, single point]
COCCNC(=S)NCCCNc1nc2cc3c(cc2cc1C#N)OCO3 | inactive: -6.29% | 
O=C(C[n+]1ccccc1)Nc1ccc(Cl)c([N+](=O)[O-])c1 | inactive: 1.89% | 
COC(=O)C1=CN(CC2CCCO2)C=C(C(=O)OC)C1c1ccccc1C(F)(F)F (stereo not given) |  | inconclusive [activator, single point]
CC1CCCCN1C(=O)c1ccc(COc2ccc([N+](=O)[O-])cc2)o1 (stereo not given) |  | inconclusive [activator, single point]
O=C(Nc1cccc(Cl)c1)Nc1csc([N+](=O)[O-])c1 |  | inconclusive [activator, full curve, poor fit]
S=c1[nH]nc(C2CCCCC2)n1/N=C/c1ccccc1Br |  | inconclusive [activator, single point]
COc1ccc([C@H]2CC(=O)C=C(c3ccc4ccn(C)c4c3)C2)cc1 |  | inconclusive [activator, full curve, poor fit]
